Measured values as given in a collection of fitness landscapes (doi:10.1016/j.celrep.2020.107928).
The full ranking holds about 81,000 sequences; the median of “one-hybrid fitness for binding NBS DNA” is about -0.1, and the highest 2% start at about 0.36. Some of the results follow.

B1: Caulobacter ParB omega fusion; a variant is named by its letters at X, in order, B8GW30 (parent)
chain: MESVVVGEPGMSEGRRGLGRGLSALLGEVDAAPAQAPGEQLGGSREAPIEILQRNPDQPRRTFREEDLEDLSNSIREKGVLQPILVRPSPDTAGEYQIVAGERAWRAAQRAGLKTVPIMVRELDDLAVLEIGIIENVQRADLNVLEEALSYKVLMEKFERTQENIAQTIGKSXSHVANXMRLLXLPDEVQSYLVSGELTAXHARAIAAAADPVALAKQIIEGGLSVRETEALARKAPNLSAGKSKGGRPPRVKDTDTQALESDLSSVLGLDVSIDHRGSTGTLTITYATLEQLDDLCNRLTRGI

Variants of: B1
Test: one-hybrid fitness for binding NBS DNA (the Noc-binding site; scaled: cognate 1, non-cognate 0); higher = stronger binding
Conditions: with NBS DNA site
Method in brief: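 In E. coli USO, a HIS3 reporter with its site placed 19 bp from the promoter was used to select Caulobacter ParB variants randomised at four specificity codons. Growth lasted 48 hours at 37°C on histidine-free M9 containing 0.1 mM IPTG and 5 mM 3-AT. Fitness was taken as the log change in variant-to-wild-type read ratio from Illumina sequencing of pre- and post-selection plasmids, rescaled between the non-cognate and cognate sites.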

| Variant | one-hybrid fitness for binding NBS DNA |
| --- | --- |
| VRAI | ≤ 0.2 |
| NLRT | ≤ 0.2 |
| KNKH | ≤ 0.2 |
| RYYV | ≤ 0.2 |
| VMIT | ≤ 0.2 |
| IEVY | ≤ 0.2 |
| NQKF | ≤ 0.2 |
| CVQC | ≤ 0.2 |
| DREL | ≤ 0.2 |
| YCGC | ≤ 0.2 |
| WYCR | 0.33 |
| GSWS | ≤ 0.2 |
| QQQD | ≤ 0.2 |
| AAGT | ≤ 0.2 |
| SIDS | ≤ 0.2 |
| IRLC | ≤ 0.2 |
| MKVS | ≤ 0.2 |
| LTMT | ≤ 0.2 |
| GLHG | ≤ 0.2 |
| RCFL | ≤ 0.2 |
| MVIL | ≤ 0.2 |
| GQRV | ≤ 0.2 |
| FTIK | ≤ 0.2 |
| GMQP | ≤ 0.2 |
| NEAV | ≤ 0.2 |
| VSEG | ≤ 0.2 |

| Variant | one-hybrid fitness for binding NBS DNA |
| --- | --- |
| LWYM | ≤ 0.2 |
| IPLR | ≤ 0.2 |
| HFPC | ≤ 0.2 |
| QAGR | 0.525 |
| AEQL | ≤ 0.2 |
| RDDI | ≤ 0.2 |
| TSLI | ≤ 0.2 |
| HDNR | ≤ 0.2 |
| CSPC | ≤ 0.2 |
| QLFQ | ≤ 0.2 |
| YHMC | ≤ 0.2 |
| HETL | ≤ 0.2 |
| PNKG | ≤ 0.2 |
| SEKR | ≤ 0.2 |
| FPAA | ≤ 0.2 |
| LWLL | ≤ 0.2 |
| AKTP | ≤ 0.2 |
| WTTI | ≤ 0.2 |
| KVYR | ≤ 0.2 |
| RPQK | ≤ 0.2 |
| THAL | ≤ 0.2 |
| GWKS | ≤ 0.2 |
| GRYW | ≤ 0.2 |
| RKWM | ≤ 0.2 |
| HMHL | ≤ 0.2 |
| QCTH | 0.295 |

| Variant | one-hybrid fitness for binding NBS DNA |
| --- | --- |
| TQTE | ≤ 0.2 |
| IHKT | ≤ 0.2 |
| LCME | ≤ 0.2 |
| KTMW | ≤ 0.2 |
| ITLI | ≤ 0.2 |
| ISRA | ≤ 0.2 |
| EETT | ≤ 0.2 |
| SALK | ≤ 0.2 |
| DSSA | ≤ 0.2 |
| IFQR | ≤ 0.2 |
| QYFY | ≤ 0.2 |
| IAGR | ≤ 0.2 |
| TALA | ≤ 0.2 |
| IGPR | ≤ 0.2 |
| HICD | ≤ 0.2 |
| FARV | ≤ 0.2 |
| RWLT | ≤ 0.2 |
| TTLL | ≤ 0.2 |
| TEGW | ≤ 0.2 |
| IRMV | ≤ 0.2 |
| SLGR | ≤ 0.2 |
| QIVL | ≤ 0.2 |
| IKTQ | ≤ 0.2 |
| SLKG | ≤ 0.2 |
| SDRS | ≤ 0.2 |
| CCET | ≤ 0.2 |

| Variant | one-hybrid fitness for binding NBS DNA |
| --- | --- |
| NGME | ≤ 0.2 |
| FPHL | ≤ 0.2 |
| KKLG | ≤ 0.2 |
| HPPT | ≤ 0.2 |
| KQHT | ≤ 0.2 |
| SCQS | ≤ 0.2 |
| IACS | ≤ 0.2 |
| VPMV | ≤ 0.2 |
| LSYF | ≤ 0.2 |
| WTSE | ≤ 0.2 |
| ECTT | ≤ 0.2 |
| GRPW | ≤ 0.2 |
| CPKF | ≤ 0.2 |
| QPIK | ≤ 0.2 |
| QGFL | ≤ 0.2 |
| CRPP | ≤ 0.2 |
| HKPA | ≤ 0.2 |
| CGKE | ≤ 0.2 |
| RNTN | ≤ 0.2 |
| MRHP | ≤ 0.2 |
| SVKN | ≤ 0.2 |
| IDYR | ≤ 0.2 |
| QQPA | ≤ 0.2 |
| RQGN | ≤ 0.2 |
| LPDR | ≤ 0.2 |
| AQKM | ≤ 0.2 |

| Variant | one-hybrid fitness for binding NBS DNA |
| --- | --- |
| WWRR | ≤ 0.2 |
| NSMG | ≤ 0.2 |
| MKQR | ≤ 0.2 |
| HGHR | ≤ 0.2 |
| HCTD | ≤ 0.2 |
| QEST | ≤ 0.2 |
| EDES | ≤ 0.2 |
| WELN | ≤ 0.2 |
| AKSY | ≤ 0.2 |
| VHYG | ≤ 0.2 |
| MGHV | ≤ 0.2 |
| STLY | ≤ 0.2 |
| CCRE | ≤ 0.2 |
| VMGR | ≤ 0.2 |
| QMQP | ≤ 0.2 |
| QMRL | 0.287 |
| RCVM | ≤ 0.2 |
| IACC | ≤ 0.2 |
| RPSE | ≤ 0.2 |
| PVDG | ≤ 0.2 |
| VYNG | ≤ 0.2 |
| QYYL | ≤ 0.2 |
| TRYI | ≤ 0.2 |
| HRKE | ≤ 0.2 |
| HSEF | ≤ 0.2 |
| VHMG | ≤ 0.2 |

| Variant | one-hybrid fitness for binding NBS DNA |
| --- | --- |
| SCFT | ≤ 0.2 |
| LDPI | ≤ 0.2 |
| KGTE | ≤ 0.2 |
| WNIG | ≤ 0.2 |
| TAKN | ≤ 0.2 |
| RFSA | ≤ 0.2 |
| RHNY | ≤ 0.2 |
| GQQL | ≤ 0.2 |
| QFHG | ≤ 0.2 |
| TYCK | ≤ 0.2 |
| LETV | ≤ 0.2 |
| PHPY | ≤ 0.2 |
| SNKL | ≤ 0.2 |
| KGVE | ≤ 0.2 |
| PTLI | ≤ 0.2 |
| RWSF | ≤ 0.2 |
| YEGR | ≤ 0.2 |
| YATS | ≤ 0.2 |
| IMDR | ≤ 0.2 |
| YGKT | ≤ 0.2 |
| ICSY | ≤ 0.2 |
| QAGM | ≤ 0.2 |
| WYRG | ≤ 0.2 |
